{"source": "PubChem BioAssay AID485344", "about": "(National Center for Advancing Translational Sciences (NCATS), 2010)", "note": "In all, about 340,000 compounds went through this assay and about 6,900 (2%) were called active. Cut-off read from the data, not from the text of the source: active = inhibition above about 30%; inactive = below that, where a call was filed. The list shows a part of the results, in another mix than the full data. Entries without a call were filed so in the source."}
{"biological_target": "D(2) dopamine receptor (Homo sapiens) (UniProt P14416)", "sequence (P14416 whole entry, looked up)": "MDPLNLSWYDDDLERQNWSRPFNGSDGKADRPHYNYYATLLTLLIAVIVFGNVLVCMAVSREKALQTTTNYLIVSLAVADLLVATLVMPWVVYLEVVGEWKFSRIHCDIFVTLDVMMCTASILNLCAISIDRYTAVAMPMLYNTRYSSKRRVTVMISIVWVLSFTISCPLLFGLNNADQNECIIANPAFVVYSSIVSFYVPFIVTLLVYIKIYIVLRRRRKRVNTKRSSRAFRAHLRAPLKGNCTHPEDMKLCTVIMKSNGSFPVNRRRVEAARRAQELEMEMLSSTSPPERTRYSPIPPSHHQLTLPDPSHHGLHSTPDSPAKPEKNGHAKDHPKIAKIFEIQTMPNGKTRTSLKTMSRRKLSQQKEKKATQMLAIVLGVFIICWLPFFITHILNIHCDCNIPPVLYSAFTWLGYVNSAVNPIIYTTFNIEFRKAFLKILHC", "test": "HTS Assay for Allosteric Antagonists of the Human D2 Dopamine Receptor: Primary Screen for Antagonists; note: 0% is about no effect", "conditions": "HEK293 TREx D2 cells, calcium flux, dopamine EC80; at 10 µM; stronger effect = higher value", "summary_of_the_method": "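Inhibition of EC80 dopamine-driven calcium flux, recorded kinetically, defines activity here; cells are a tetracycline-induced HEK293 T-REx line expressing force-coupled D2.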"}
{"smiles": "COc1ccc(Cn2ccn(Cc3cccc(C)c3)c(=O)c2=O)cc1", "inhibition": "4.66%"}
{"smiles": "CCOc1ccc(-n2c(SCC(=O)NCC3CCCO3)nc3c([nH]c4ccccc43)c2=O)cc1", "note": "(stereo unspecified)", "inhibition": "0.12%"}
{"smiles": "O=C(NCCc1ccccc1)c1ccc2c(c1)N(Cc1c(F)cccc1Cl)C(=O)CS2", "inhibition": "14.4%"}
{"smiles": "Cn1c(=O)c(=O)n(C)c2cc(S(=O)(=O)N3CCCC3C(=O)Nc3ccccc3F)ccc21", "note": "(stereo unspecified)", "inhibition": "-15%"}
{"smiles": "COc1ccc(NC(=O)CSc2nncn3c2cc2oc(C)cc23)cc1OC", "inhibition": "-0.714%"}
{"smiles": "Cc1ccc(CCNC(=O)C(NS(=O)(=O)c2ccc3c(c2)oc(=O)n3C)C(C)C)cc1", "note": "(stereo unspecified)", "inhibition": "-8.32%"}
{"smiles": "CCOC(=O)CSc1ccc2nnc(CCNS(=O)(=O)c3ccccc3)n2n1", "inhibition": "15.6%"}
{"smiles": "Cc1ccc(N(CC(=O)N2CCN(c3ccccc3F)CC2)S(=O)(=O)c2c(C)noc2C)cc1", "inhibition": "-18.1%"}
{"smiles": "COc1cc2c(cc1OC)C(c1ccc(F)cc1)N(c1cccc(C#N)c1)C(=O)C2", "note": "(stereo unspecified)", "inhibition": "-0.417%"}
{"smiles": "O=C(Nc1cccc(C(=O)OCc2cc(=O)n3nc(C4CC4)sc3n2)c1)c1cccc(F)c1", "inhibition": "0.176%"}
{"smiles": "Cc1ccc(S(=O)(=O)c2nc(-c3cccs3)oc2SC(C)c2ccccc2)cc1", "note": "(stereo unspecified)", "inhibition": "6.41%"}
{"smiles": "CCOC(=O)c1noc2ncn(CC(=O)Nc3ccc(OC)c(Cl)c3)c(=O)c12", "inhibition": "2.62%"}
{"smiles": "CCOc1ccc(CC(=O)NCCS(=O)(=O)N2CCN(c3ccccc3OC)CC2)cc1", "inhibition": "28%"}
{"smiles": "CCS(=O)(=O)N1CCc2cc(C(=O)N3CCN(c4ccccc4)CC3)ccc21", "inhibition": "-26.8%"}
{"smiles": "CCCCC(=O)Nc1cc(-c2nc3ccccc3o2)ccc1OC", "inhibition": "-7.4%"}
{"smiles": "CCOC(=O)C1CCCN(Cc2nc(N)nc(Nc3ccccc3OC)n2)C1", "note": "(stereo unspecified)", "inhibition": "active: 34.4%"}
{"smiles": "COc1ccc(C)cc1NC(=O)c1ccc2c(c1)N(Cc1cccc(Cl)c1)C(=O)c1ccccc1S2=O", "note": "(stereo unspecified)", "inhibition": "11.7%"}
{"smiles": "O=[N+]([O-])c1ccc(Cl)c(S(=O)(=O)Nc2cccc(-c3ccc(N4CCOCC4)nn3)c2)c1", "inhibition": "active: 34.2%"}
{"smiles": "Cc1ccc(C)c(NC(=O)c2ccc(=O)n(Cc3ccc(F)cc3)c2)c1", "inhibition": "-1.65%"}
{"smiles": "Clc1cccc(N2CCN(c3nc4ccccc4c4nc(-c5cccnc5)nn34)CC2)c1", "inhibition": "-5.27%"}
{"smiles": "CC(=O)N1c2ccc(S(=O)(=O)N3CCCCCC3)cc2CC1C(=O)NCc1cccc(F)c1", "note": "(stereo unspecified)", "inhibition": "13%"}
{"smiles": "CC1Oc2ccccc2N(CC(=O)NC2CC2)C1=O", "note": "(stereo unspecified)", "inhibition": "active: 32.7%"}
{"smiles": "COc1cc(C)ccc1OCCSc1nc2ccc(NC(=O)c3ccc4c(c3)OCO4)cc2s1", "inhibition": "-2.46%"}
{"smiles": "CCOC(=O)c1cc(-c2ccccc2)n(CCC(=O)Nc2ccc(OC)c(Cl)c2)c1C", "inhibition": "-0.463%"}
{"smiles": "Cc1ccccc1-c1nc2c(c(SCc3cccc(Cl)c3)n1)Cc1c(CO)cnc(C)c1O2", "inhibition": "-8.43%"}
{"smiles": "CCc1ccc(NC(=O)Cn2c(=O)n(CCCC(=O)NCc3ccccc3OC)c(=O)c3ccccc32)cc1", "inhibition": "-3.76%"}
{"smiles": "CC(C)N(C(=O)N1CCN(c2ccnc3cc(Cl)ccc23)CC1)C(C)C", "inhibition": "active: 30.5%"}
{"smiles": "COc1cc(-c2nc(Cn3nnc(C(=O)Nc4ccccc4C)c3C)c(C)o2)cc(OC)c1OC", "inhibition": "-8.14%"}
{"smiles": "CCOc1ccc(-c2cc(C(=O)NCc3ccc(OCC)c(OC)c3)[nH]n2)cc1", "inhibition": "-2.15%"}
{"smiles": "COc1ccc(-c2ccc(NS(=O)(=O)c3ccccc3)cc2)nn1", "inhibition": "-3.87%"}
{"smiles": "CCc1cccc(CC)c1NC(=O)CCS(=O)(=O)c1ccc(Br)cc1", "inhibition": "8.43%"}
{"smiles": "O=c1c2sc3ccccc3c2n(Cc2ccc(F)cc2)c(=O)n1Cc1ccccc1", "inhibition": "13.2%"}
{"smiles": "Cc1cc(C)n2nc(SCC(=O)Nc3ccc(O)cc3)nc2n1", "inhibition": "6.08%"}
{"smiles": "COc1ccc2[nH]cc(CCNC(=O)Nc3c(C)cccc3C)c2c1", "inhibition": "12.5%"}
{"smiles": "Cc1ccc(NC(=O)CSc2ncccc2C(=O)Oc2ccccc2Cl)cc1Cl", "inhibition": "17.9%"}
{"smiles": "COc1cccc(NC(=O)c2oc3ccccc3c2NC(=O)COc2ccccc2C)c1", "inhibition": "3.18%"}
{"smiles": "COc1ccc(-c2nnn3c2nc(NCc2ccccc2)c2ccccc23)cc1", "inhibition": "-8.8%"}
{"smiles": "Cc1ccn2c(=O)c(C(=O)Nc3ccc(F)c(C(F)(F)F)c3)cnc2c1", "inhibition": "19.5%"}
{"smiles": "O=C(Cn1cc(S(=O)(=O)c2ccc(F)cc2)c(=O)c2cc3c(cc21)OCO3)Nc1ccccc1", "inhibition": "22.8%"}
{"smiles": "Cc1oc(-c2ccccc2F)nc1CN1CCC(C(=O)NCCc2ccc(Cl)cc2)CC1", "inhibition": "10.7%"}
{"smiles": "CCOc1ccc(-c2nonc2NC(=O)c2oc3ccc(Cl)cc3c2C)cc1", "inhibition": "-22.4%"}
{"smiles": "Fc1ccc(CN2CCN(c3ncccn3)CC2)c(F)c1", "inhibition": "active: 79.5%"}
{"smiles": "COc1ccc(-c2nn(-c3ccccc3)cc2C(=O)NCCCn2ccnc2)cc1", "inhibition": "active: 30%"}
{"smiles": "CCOc1ccc(N(CC)C(=O)c2cc3c(=O)oc4ccccc4c3s2)cc1", "inhibition": "10.4%"}
{"smiles": "CCOc1ccc(CN2CCN(S(=O)(=O)c3ccc(Cl)cc3)CC2)cc1", "inhibition": "10.5%"}
{"smiles": "O=C(CCCN1CCc2[nH]c3ccc(F)cc3c2C1)c1ccc(F)cc1", "inhibition": "active: 92.7%"}
{"smiles": "CN1CCN(CC/C=C2/c3ccccc3Sc3ccc(S(=O)(=O)N(C)C)cc32)CC1", "inhibition": "active: 80%"}
{"smiles": "O=c1oc2c(F)cc(F)cc2cc1S(=O)(=O)c1ccc(F)cc1", "inhibition": "10.8%"}
{"smiles": "Cc1nc(C)c(CCNS(=O)(=O)c2ccc(C)c(C)c2)s1", "inhibition": "1.8%"}
{"smiles": "Cc1ccc(C(=O)Nc2cccc(C(=O)N/N=C/c3ccc(F)cc3)c2)cc1", "inhibition": "active: 31.3%"}
{"smiles": "Cc1ccc(Cc2nc3ccccc3nc2SCC(=O)N2CCCCC2)cc1", "inhibition": "-2.73%"}
{"smiles": "Cc1ccc(-n2c(=O)c3c(c4cc(C)ccc4n3C)n(CC(=O)NCCC3=CCCCC3)c2=O)cc1", "inhibition": "-8.58%"}
{"smiles": "COC(=O)c1cc2oc(C)cc2n1Cc1cccc(Cl)c1", "inhibition": "10.3%"}
{"smiles": "O=c1c2oc3ccccc3c2n(Cc2cccc(Cl)c2)c(=O)n1Cc1ccc2c(c1)OCO2", "inhibition": "-0.83%"}
{"smiles": "COc1ccccc1OCC(=O)NCC1(N2CCOCC2)CCCCC1", "inhibition": "2.44%"}
{"smiles": "O=C(NCc1cccc(Cl)c1)c1ccc(CS(=O)Cc2ccccc2Cl)o1", "note": "(stereo unspecified)", "inhibition": "12.5%"}
{"smiles": "O=C(NCc1ccccc1F)C(=O)NCC(c1cccs1)S(=O)(=O)c1cccs1", "note": "(stereo unspecified)", "inhibition": "-3.54%"}
{"smiles": "CC1(C)ON(C2CCCCC2)[C@H]2c3nc4ccccc4n3C[C@H]21", "inhibition": "active: 39%"}
{"smiles": "CC(C)Cc1ccc(S(=O)(=O)Nc2ccc3[nH]c(=O)[nH]c3c2)cc1", "inhibition": "-10%"}
{"smiles": "CCOc1ccc(OCC)c(NC(=O)c2cnc3c(-c4ccccc4)c(C)nn3c2C)c1", "inhibition": "14.9%"}
{"smiles": "CCCn1c(C)nc2cc(Cl)c(N3CCN(c4nc(-c5ccc(C)cc5)cs4)CC3)cc21", "inhibition": "active: 40%"}
